# Laboratory results as given in PubChem BioAssay AID1346428 (National Center for Advancing Translational Sciences (NCATS), 2018).
# Values joined by “and” are separate entries in the source; they are usually repeats but may differ in a detail not shown here. Equal values may be shown once. The campaign covered roughly 48,000 compounds. About 1,200 (2.5%) were called active. Not shown: some 2% with an inconclusive outcome.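 The calls were made as follows: active = activation of at least 60% and not above a set upper limit (about 1 call in 100 departs from these limits); inconclusive = activation of 40% to 60%, or above that upper limit; inactive = activation under 40%.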 The list shows a part of the results.
# Target: Probable G-protein coupled receptor 32 (Homo sapiens) (UniProt O75388)
# Test: qHTS for Agonists of Human Resolvin D1 Receptor DRV1; also: 0% is about no effect
# Conditions: CHO-K1 GPR32 beta-arrestin PathHunter luminescence, 90 min; at 76.9 µM; hits give high values; zero percent set by DMSO-only wells
# Outline: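 GPR32 activation in stably transfected CHO-K1 cells, detected as beta-arrestin recruitment by enzyme-fragment complementation. Compound exposure: 90 min, 37 °C.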
# Chain of UniProt O75388 (O75388 whole entry, looked up): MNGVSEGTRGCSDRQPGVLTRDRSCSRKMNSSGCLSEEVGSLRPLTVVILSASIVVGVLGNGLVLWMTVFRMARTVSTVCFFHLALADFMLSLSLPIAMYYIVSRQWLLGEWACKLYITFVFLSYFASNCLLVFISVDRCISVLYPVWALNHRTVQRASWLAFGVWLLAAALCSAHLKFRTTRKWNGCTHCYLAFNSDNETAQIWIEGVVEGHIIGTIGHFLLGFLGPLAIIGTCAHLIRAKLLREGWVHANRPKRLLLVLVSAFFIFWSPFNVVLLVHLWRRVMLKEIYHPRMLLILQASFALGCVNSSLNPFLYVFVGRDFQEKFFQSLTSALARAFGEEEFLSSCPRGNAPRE
row,SMILES,activation
1,COc1cccc(C(=O)NCC2OCCc3ccccc32)c1 (stereo not drawn),inactive: 14.3%
2,O=C(NCCc1ccccc1)c1ccc2c(c1)N(Cc1ccc(Cl)cc1)C(=O)CS2,inactive: 0.0854%
3,Cc1nn(C)c(C)c1S(=O)(=O)N(CC(=O)NCCc1ccccc1)c1ccc(C(C)C)cc1,inactive: -10.3%
4,CCc1ccc(NC(=O)CSc2ccnc(=O)[nH]2)cc1,inactive: -9%
5,Cc1ccc(C(=O)c2cn(Cc3cccc(Cl)c3)c3nc(C)ccc3c2=O)cc1,inactive: -9.64%
6,CCCCNC(=O)c1nn(C)c2c1CSc1ccccc1-2,inactive: -15.6%
7,Cc1cccc(N2C(=O)CC(c3ccc(F)cc3)C3=C2COC3=O)c1 (stereo not drawn),inactive: -16.7%
8,O=C(CSCc1ccc(F)cc1)N1CCN(c2ccccc2F)CC1,inactive: -12.7%
9,Cc1cc2c(cc1S(=O)(=O)NCc1ccc(F)cc1)n(C)c(=O)c(=O)n2C,inactive: 9.33%
10,CCOc1ccc(CNC(=O)c2cccc(NC(=O)N3CCSc4ncccc43)c2)cc1OC,inactive: 27.6%
11,CCc1ccc(C(=O)c2cn(CC(=O)Nc3ccc(Cl)cc3)c3cc4c(cc3c2=O)OCO4)cc1,inactive: 4.06%
12,CCOc1cc2sc(N3CCC(C(=O)Nc4ccc(CC)cc4)CC3)nc2cc1Br,inactive: -7.44%
13,CC(=O)N1CCCc2cc(S(=O)(=O)N3CCCC(C(=O)N4CCN(c5cccc(Cl)c5)CC4)C3)ccc21 (stereo not drawn),inactive: 8.45%
14,Cc1nc(N2CCCC2)c2c(C(=O)N3CCN(c4ccccc4)CC3)c(C)oc2n1,inactive: -11.1%
15,Cc1cc2c(n1-c1ccc(C(=O)NCCc3ccc(Cl)cc3)cc1)CCCC2,inactive: -18%
16,CCC(Cn1nnc2ccccc2c1=O)NC(=O)Nc1cc(C)cc(C)c1 (stereo not drawn),inactive: -21.8%
17,CC(C)C(=O)Nc1nnc2n1CCS2,inactive: 5.75%
18,CC(C)c1nn2c(=O)cc(COC(=O)c3cccc(NC(=O)COc4ccc(F)cc4)c3)nc2s1,inactive: -2.58%
19,Cc1ccc(S(=O)(=O)n2nc(C)c(S(=O)(=O)N3CCCCCC3)c2C)cc1,inactive: -6.45%
20,Cc1ccc(C)c(CSc2nnc3[nH]c(=O)cc(C)n23)c1,inactive: 30.6%
21,COc1ccc(C)cc1NC(=O)c1noc2c1CSc1ccccc1-2,inactive: -3.28%

row,SMILES,activation
1,COc1ccc(C2C(C(=O)Nc3ccccc3)=C(C)Nc3c(C(=O)Nc4ccccc4)cnn32)cc1 (stereo not drawn),inactive: -28.2%
2,CS(=O)(=O)N1CCc2cc(C(=O)N3CCN(c4cccc(Cl)c4)CC3)ccc21,inactive: 15.8%
3,COCCNC(=O)CCC(=O)NNc1nc2ccccc2c2nc(C)nn12,inactive: -0.6%
4,CCOc1ccccc1NC(=O)c1c(NC(=O)COc2ccc(Cl)cc2)sc2c1CCCCC2,inactive: -0.0805%
5,Cc1ccc(C)c(CSc2nc(-c3ccccc3F)nc3c2Cc2c(CO)cnc(C)c2O3)c1,inactive: 6.18%
6,COc1ccc(Br)cc1C1C(C(=O)Nc2ccc(C)cc2C)=C(C)Nc2ncnn21 (stereo not drawn),inactive: -6.98%
7,Cc1ccc(NC(=O)C2(c3cccs3)CCOCC2)cc1Cl,inactive: 15.4%
8,Cc1ccc(C)c(N2CCN(C(=O)c3cn(CC(C)C)c(=O)c4c3c3ccccc3n4C)CC2)c1,inactive: -9.69%
9,COCCCNc1nc(NCc2ccccc2OC)c2cnn(C)c2n1,active: 75.1%
10,COc1ccc(NC(=O)Cn2c(=O)n(-c3cc(C)cc(C)c3)c(=O)c3oc4ccccc4c32)cc1OC,inactive: -32.5%
11,COc1cccc(NC(=O)Cn2nnc(C(=O)NCc3cccs3)c2N)c1,inactive: 6.35%
12,O=C(NCCc1ccccc1)c1nn(-c2ccccc2F)nc1CO,inactive: -11.3%
13,Cc1ccc2c(CNCCc3ccccc3)c(C(=O)O)n(Cc3ccccc3C)c2c1,active: 65.5%
14,COc1ccc(S(=O)(=O)NCc2ccc3c(c2)CCN3C(=O)c2ccccc2)cc1OC,inactive: -20.9%
15,COC(=O)c1ccc(Cl)cc1NC(=O)N1CC2CCCN2c2ccccc21 (stereo not drawn),inactive: -10.7%
16,CCOC(=O)C1CCN(c2cc3c(cc2NC(=O)c2ccc(Cl)cc2)n(C)c(=O)n3C)CC1,inactive: 3.94%
17,Cc1cc(Nc2ccccc2F)n2nc(-c3ccccc3)nc2n1,inactive: 6.48%
18,COc1ccc(NC(=O)CN2C(=O)CCn3nc(-c4cccn4C)cc32)cc1,inactive: 12%
19,Cc1cc(C)c(Nc2nc3ccccc3n3c(C)nnc23)c(C)c1,inactive: -9.04%
20,COc1ccccc1OCCn1c(NC(=O)c2ccccc2Cl)nc2ccccc21,inactive: -28.8%
21,Cc1ccc(NC(=O)C(=O)NCC(c2cccnc2)N2CCN(Cc3ccccc3)CC2)cc1C (stereo not drawn),inactive: -9.3%

row,SMILES,activation
1,CCN(CC)C(=O)Cn1c(=O)cc(C)c2c(C)nn(-c3cccc(Cl)c3C)c21,active: 94%
2,COc1cccc(CNC(=O)C2CCC(CNS(=O)(=O)c3ccc4c(c3)CCCC(=O)N4)CC2)c1 (stereo not drawn),inactive: 9.71%
3,Cc1ccc(NC(=O)CSc2nnc3scc(-c4ccc(Cl)cc4)n23)cc1,inactive: 1.96%
4,CNc1c(NC(=O)c2ccc(OC)c(OC)c2)c(=O)oc2ccccc12,inactive: 9.52%
5,CCOc1ccc(-c2cc(C(=O)N3CCN(c4cc(Cl)ccc4C)CC3)c3ccccc3n2)cc1,inactive: -9.61%
6,CCN(CC)CCCNc1oc(/C=C/c2ccc(OC)c(OC)c2)nc1C#N,inactive: -16.3%
7,COc1ccc(NC(=O)Cn2cc(S(=O)(=O)N3CCN(c4ccccc4F)CC3)c3ccccc3c2=O)cc1Cl,inactive: -14%
8,Cc1ccc(Nc2nc3nonc3nc2Nc2cccc(C(F)(F)F)c2)cc1Cl,inactive: 15.6%
9,CCOC(=O)C1=C(CN2CCN(c3ccc(OC)cc3)CC2)NC(=O)NC1c1ccc(OC)cc1 (stereo not drawn),inactive: -17.5%
10,Cc1ccc(NC(=O)C(Cc2c[nH]c3ccccc23)NC(=O)OC(C)(C)C)c(C)c1 (stereo not drawn),inactive: -13.3%
11,Cc1cc(C)cc(NC(=O)NCCc2c(C)nn(C)c2C)c1,inactive: 5.65%
12,Cc1cc2c(cc1S(=O)(=O)CCC(=O)N1CCC(C)CC1)OCC(=O)N2,inactive: -0.0125%
13,CCc1ccc(C(=O)c2cn(CC(=O)Nc3ccc4c(c3)OCO4)c3ccc(CC)cc3c2=O)cc1,inactive: 16.2%
14,CCC(C)NC(=O)CCCN1C(=O)CCn2nc(-c3cccn3C)cc21 (stereo not drawn),inactive: 6.88%
15,COc1ccc(-c2ccc3c(N)c(C(=O)c4ccc(OC)c(OC)c4)sc3n2)cc1,inactive: -7.11%
16,CCc1ccc(-n2c(=O)c3c4c(sc3n(CC(=O)c3ccc(F)cc3)c2=O)CCC4)cc1,inactive: -17.7%
17,CCCc1cc(=O)[nH]c(SCC(=O)N2CCN(c3ccccc3)CC2)n1,inactive: -3.51%
18,COc1ccc(CNC(=O)CSCc2nc(-c3ccccc3C)oc2C)cc1,inactive: -10.8%
19,COc1ccc(CNC(=O)c2ccc(-c3nc(CSc4ccccc4)c(C)o3)cc2)cc1OC,inactive: 8.67%
20,CCc1cccc(NC(=O)COC(=O)c2cn(CC)c3nc(C)ccc3c2=O)c1,inactive: 3.06%
21,CC(C)c1nn2c(=O)cc(COC(=O)c3ccc(NC(=O)COc4ccccc4)cc3)nc2s1,inactive: -18.1%

row,SMILES,activation
1,COc1ccccc1C(=O)Nc1ccccc1OCc1cc(=O)n2c(C)csc2n1,inactive: -4.82%
2,O=S(=O)(c1ccc(-c2cc(C(F)(F)F)on2)s1)N1CCN(c2ccccc2F)CC1,inactive: -1.27%
3,COc1ccc(NC(=O)CN2C(=O)CCn3nc(-c4cccn4C)cc32)cc1Cl,inactive: -16.9%
4,CCCN1CCN(c2ncnc3sc(C(=O)Nc4ccc(C(C)C)cc4)c(C)c23)CC1,inactive: -6.97%
5,CCOC(=O)c1sc2cccc(F)c2c1S(=O)(=O)NCc1ccccc1Cl,inactive: -16.1%
6,O=C(CS(=O)(=O)c1cccc2nsnc12)N1CCN(c2cccc(Cl)c2)CC1,inactive: 1.37%
7,COc1ccc(-c2cc(-c3ccccc3)c(C#N)c(SCC(O)CS(=O)(=O)Cc3ccc(Cl)cc3)n2)cc1 (stereo not drawn),inactive: -1.65%
8,CC(=O)Nc1nonc1-c1nnc(SCC(=O)Nc2ccc(C)cc2)n1-c1ccccc1,inactive: -21.1%
9,Cc1ccc(N(CC(=O)NCCc2ccc(Cl)cc2)S(=O)(=O)c2c(C)noc2C)cc1,inactive: 31.9%
10,Cc1ccc(C(c2sc3nc(-c4ccco4)nn3c2O)N2CCCC2)cc1 (stereo not drawn),inactive: 22.7%
11,COc1cccc(N2CCN(C(=O)c3ccc(C)c(NC(=O)c4nsc5ccccc45)c3)CC2)c1,inactive: -6.35%
12,COc1cc(SC)ccc1C(=O)Nc1ccc(S(=O)(=O)Nc2nccc(C)n2)cc1,inactive: 4.56%
13,Cc1ccc(NC(=O)CN2C(=O)c3ccccc3Sc3ccc(C(=O)N4CCOCC4)cc32)cc1F,inactive: -11.4%
14,CC(C)OC(=O)C(C)(C)Oc1ccc(C(=O)c2ccc(Cl)cc2)cc1,inactive: -8.8% and inactive: -0.062%
15,Cc1cccc(NC(=O)Cn2nnc(-c3nc(-c4ccncc4)no3)c2N)c1,inactive: -13.5%
16,COc1ccc(CN2CCc3c(c(=O)n4ncc(C(=O)N5CCN(c6ccccc6OC)CC5)c4n3C)C2)cc1,inactive: 13.9%
17,COc1cc(NC(=O)c2cc(C3CC3)nc3c2c(C)nn3-c2ccccc2)cc(OC)c1,inactive: -36%
18,COC(=O)Cn1c(=O)c2cccn2c2ccc(F)cc21,inactive: -6.49%
19,Cc1ccccc1N1CCN(S(=O)(=O)c2nnc(NC(=O)c3ccc(C(C)C)cc3)s2)CC1,inactive: 2.2%
20,CCOc1ccc(C(=O)Cn2c(=O)n3nc(CCn4nc(C)cc4C)nc3c3cc(OC)c(OC)cc32)cc1,inactive: -5.18%
